For 10 molecules, Kd, koff and kon results are on record in US20210238308A1 (Chugai, published 2021).

A word on the Kd: it is the constant that tells how readily two partners part at equilibrium. Read a low Kd as a tighter complex. As a reminder, the koff is the rate constant with which the complex falls apart. What is called kon is the rate constant with which the complex forms.

In the test the target is T1, human TRIM21 PRYSPRY domain with N-terminal 6xHis tag (human).
T1 construct: Expressed from pET28a in E. coli; also called hTRIM21
T1 chain: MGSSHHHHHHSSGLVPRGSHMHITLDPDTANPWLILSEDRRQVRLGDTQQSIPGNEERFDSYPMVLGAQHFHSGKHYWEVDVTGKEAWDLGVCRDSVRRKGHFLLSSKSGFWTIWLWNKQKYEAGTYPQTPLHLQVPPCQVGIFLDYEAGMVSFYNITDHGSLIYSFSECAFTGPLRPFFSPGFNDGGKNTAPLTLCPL
The test can be described thus: SPR, Ab captured on Protein L, hTRIM21 12.5-200 nM. In general terms: SPR reads the build-up and loss of mass on a sensor chip optically.

B1: 3D8VH-G1m/hT4VL-KT0.Avi I253Y (antibody, human IgG1, kappa)
heavy: EVQLVESGGGLVQPGGSLRLSCAASGYTFTSYVMHWVRQAPGKGLEWVSAINPYNDGNYYADSVKGRFTISRDNSRKTLYLQMNSLRAEDTAVYYCARGAYKRGYAMDYWGQGTTVTVSSASTKGPSVFPLAPSSKSTSGGTAALGCLVKDYFPEPVTVSWNSGALTSGVHTFPAVLQSSGLYSLSSVVTVPSSSLGTQTYICNVNHKPSNTKVDKKV[human IgG1 Fc with I253Y (EU numbers) omitted here]
light: [about 200 residues omitted here]GGGGSGLNDIFEAQKIEWHE
As to B1, the Kd turned out to be 2.85 nM, the koff is 0.00806 s⁻¹ and the association rate constant (kon) stood at 2.83e+06 M⁻¹ s⁻¹.

B2: 3D8VH-G1m/hT4VL-KT0.Avi L309D (antibody, human IgG1, kappa)
heavy: EVQLVESGGGLVQPGGSLRLSCAASGYTFTSYVMHWVRQAPGKGLEWVSAINPYNDGNYYADSVKGRFTISRDNSRKTLYLQMNSLRAEDTAVYYCARGAYKRGYAMDYWGQGTTVTVSSASTKGPSVFPLAPSSKSTSGGTAALGCLVKDYFPEPVTVSWNSGALTSGVHTFPAVLQSSGLYSLSSVVTVPSSSLGTQTYICNVNHKPSNTKVDKKV[human IgG1 Fc with L309D (EU numbers) omitted here]
light: [about 200 residues omitted here]GGGGSGLNDIFEAQKIEWHE
Consider B2, for which the koff came out at 0.00288 s⁻¹ and the kon was determined as 123000 M⁻¹ s⁻¹.

B3: 3D8VH-G1m/hT4VL-KT0.Avi L432P (antibody, human IgG1, kappa)
heavy: EVQLVESGGGLVQPGGSLRLSCAASGYTFTSYVMHWVRQAPGKGLEWVSAINPYNDGNYYADSVKGRFTISRDNSRKTLYLQMNSLRAEDTAVYYCARGAYKRGYAMDYWGQGTTVTVSSASTKGPSVFPLAPSSKSTSGGTAALGCLVKDYFPEPVTVSWNSGALTSGVHTFPAVLQSSGLYSLSSVVTVPSSSLGTQTYICNVNHKPSNTKVDKKV[human IgG1 Fc with L432P (EU numbers) omitted here]
light: [about 200 residues omitted here]GGGGSGLNDIFEAQKIEWHE
For B3, the Kd is 22 nM, the koff is 0.0379 s⁻¹ and the kon came to 1.72e+06 M⁻¹ s⁻¹.

B4: 3D8VH-G1m/hT4VL-KT0.Avi I253Y.L432P (antibody, human IgG1, kappa)
heavy: EVQLVESGGGLVQPGGSLRLSCAASGYTFTSYVMHWVRQAPGKGLEWVSAINPYNDGNYYADSVKGRFTISRDNSRKTLYLQMNSLRAEDTAVYYCARGAYKRGYAMDYWGQGTTVTVSSASTKGPSVFPLAPSSKSTSGGTAALGCLVKDYFPEPVTVSWNSGALTSGVHTFPAVLQSSGLYSLSSVVTVPSSSLGTQTYICNVNHKPSNTKVDKKV[human IgG1 Fc with I253Y L432P (EU numbers) omitted here]
light: [about 200 residues omitted here]GGGGSGLNDIFEAQKIEWHE
For B4, the Kd came out at 1.74 nM, the koff was determined as 0.00299 s⁻¹ and the kon was 1.72e+06 M⁻¹ s⁻¹.

B5: 3D8VH-G1m/hT4VL-KT0.Avi I253M.N315Q (antibody, human IgG1, kappa)
heavy: EVQLVESGGGLVQPGGSLRLSCAASGYTFTSYVMHWVRQAPGKGLEWVSAINPYNDGNYYADSVKGRFTISRDNSRKTLYLQMNSLRAEDTAVYYCARGAYKRGYAMDYWGQGTTVTVSSASTKGPSVFPLAPSSKSTSGGTAALGCLVKDYFPEPVTVSWNSGALTSGVHTFPAVLQSSGLYSLSSVVTVPSSSLGTQTYICNVNHKPSNTKVDKKV[human IgG1 Fc with I253M N315Q (EU numbers) omitted here]
light: [about 200 residues omitted here]GGGGSGLNDIFEAQKIEWHE
For the molecule B5, the equilibrium dissociation constant (Kd) turned out to be 1.35 nM, the koff stood at 0.00249 s⁻¹ and the kon came out at 1.85e+06 M⁻¹ s⁻¹.

B6: 3D8VH-G1m/hT4VL-KT0.Avi I253M.L432P (antibody, human IgG1, kappa)
heavy: EVQLVESGGGLVQPGGSLRLSCAASGYTFTSYVMHWVRQAPGKGLEWVSAINPYNDGNYYADSVKGRFTISRDNSRKTLYLQMNSLRAEDTAVYYCARGAYKRGYAMDYWGQGTTVTVSSASTKGPSVFPLAPSSKSTSGGTAALGCLVKDYFPEPVTVSWNSGALTSGVHTFPAVLQSSGLYSLSSVVTVPSSSLGTQTYICNVNHKPSNTKVDKKV[human IgG1 Fc with I253M L432P (EU numbers) omitted here]
light: [about 200 residues omitted here]GGGGSGLNDIFEAQKIEWHE
For the molecule B6, binding was put at a Kd of 1.66 nM, the koff came to 0.00253 s⁻¹ and the kon is 1.53e+06 M⁻¹ s⁻¹.

B7: 3D8VH-G1m/hT4VL-KT0.Avi I253Y.M428F (antibody, human IgG1, kappa)
heavy: EVQLVESGGGLVQPGGSLRLSCAASGYTFTSYVMHWVRQAPGKGLEWVSAINPYNDGNYYADSVKGRFTISRDNSRKTLYLQMNSLRAEDTAVYYCARGAYKRGYAMDYWGQGTTVTVSSASTKGPSVFPLAPSSKSTSGGTAALGCLVKDYFPEPVTVSWNSGALTSGVHTFPAVLQSSGLYSLSSVVTVPSSSLGTQTYICNVNHKPSNTKVDKKV[human IgG1 Fc with I253Y M428F (EU numbers) omitted here]
light: [about 200 residues omitted here]GGGGSGLNDIFEAQKIEWHE
On to B7, for which binding was put at a Kd of 0.834 nM, the koff came out at 0.00156 s⁻¹ and the kon amounted to 1.87e+06 M⁻¹ s⁻¹.

B8: 3D8VH-G1m/hT4VL-KT0.Avi I253M.N315M (antibody, human IgG1, kappa)
heavy: EVQLVESGGGLVQPGGSLRLSCAASGYTFTSYVMHWVRQAPGKGLEWVSAINPYNDGNYYADSVKGRFTISRDNSRKTLYLQMNSLRAEDTAVYYCARGAYKRGYAMDYWGQGTTVTVSSASTKGPSVFPLAPSSKSTSGGTAALGCLVKDYFPEPVTVSWNSGALTSGVHTFPAVLQSSGLYSLSSVVTVPSSSLGTQTYICNVNHKPSNTKVDKKV[human IgG1 Fc with I253M N315M (EU numbers) omitted here]
light: [about 200 residues omitted here]GGGGSGLNDIFEAQKIEWHE
For the molecule B8, the Kd was determined as 1.3 nM, the koff was determined as 0.00235 s⁻¹ and the kon is 1.81e+06 M⁻¹ s⁻¹.

B9: 3D8VH-G1m/hT4VL-KT0.Avi I253M.Y436T (antibody, human IgG1, kappa)
heavy: EVQLVESGGGLVQPGGSLRLSCAASGYTFTSYVMHWVRQAPGKGLEWVSAINPYNDGNYYADSVKGRFTISRDNSRKTLYLQMNSLRAEDTAVYYCARGAYKRGYAMDYWGQGTTVTVSSASTKGPSVFPLAPSSKSTSGGTAALGCLVKDYFPEPVTVSWNSGALTSGVHTFPAVLQSSGLYSLSSVVTVPSSSLGTQTYICNVNHKPSNTKVDKKV[human IgG1 Fc with I253M Y436T (EU numbers) omitted here]
light: [about 200 residues omitted here]GGGGSGLNDIFEAQKIEWHE
In the case of B9, the Kd worked out at 1.42 nM, the koff is 0.00155 s⁻¹ and the kon turned out to be 1.1e+06 M⁻¹ s⁻¹.

B10: 3D8VH-G1m/hT4VL-KT0.Avi I253Y.Y436T (antibody, human IgG1, kappa)
heavy: EVQLVESGGGLVQPGGSLRLSCAASGYTFTSYVMHWVRQAPGKGLEWVSAINPYNDGNYYADSVKGRFTISRDNSRKTLYLQMNSLRAEDTAVYYCARGAYKRGYAMDYWGQGTTVTVSSASTKGPSVFPLAPSSKSTSGGTAALGCLVKDYFPEPVTVSWNSGALTSGVHTFPAVLQSSGLYSLSSVVTVPSSSLGTQTYICNVNHKPSNTKVDKKV[human IgG1 Fc with I253Y Y436T (EU numbers) omitted here]
light: [about 200 residues omitted here]GGGGSGLNDIFEAQKIEWHE
As for B10, the Kd was found to be 1.84 nM, the koff was 0.0025 s⁻¹ and the on-rate (kon) came out at 1.36e+06 M⁻¹ s⁻¹.
